# Data from the RNAGym collection of RNA variant scans (doi:10.7554/elife.90254).
# Read counts are not given, so values of variants with three or more changes are uncertain.
# B1: LINE1-full (parent)
# chain: UACGUAGGUGGUUUUCCCCUGAUAGUGCUAAGGGGGCCUGGAAGUUUGGACUGGGCAGAGCUCAACACAGCGUGGCAAAGUGGCUGUGGCUAGACUGCCUCUCUGGAUUCCUCGUCACUCAGCAGGGCAUCUCUGAGAGAAAUGCC
# Variants of: B1
# Experiment: self-cleavage, relative activity (ratio to wild type); higher = more cleavage; in vitro, sequencing; the parent is a self-cleaving ribozyme
row,Variant,self-cleavage
1,UACGUAGGUGGAUUUCCCCUGAUAGUGCUAAGGGGGCCUGGAAGUUUGGACAGGGCAGAGCUCAACACAGCGUGGCAAAGUGGCUGUGGCUAGACUGCCUCUCUGGAUUCCUCGUCACUCAGCAGGGCAUCUCUGAGAGGAAUGCC [U12A U52A A140G],0.77
2,UACGUAGGUGGAUUUCCCCUGAUAGUGCUAAGGGGGCCUGGAAGUUUGGACUGGGCAGAGCUCAACACAGCGUGGCAAAGUGGCAGUGGCUAGACUGCCUCUCUGGAUACCUCGUCACUCAGCAGGGCAUCUCUGAGAGAAAUGCC [U12A U85A U109A],0.02
3,UACGUAGGUGGAUUUCCCCUGAUAGUGCUAAGGGGGCCUGGAAGUUUGGACUGGGCAGAGCUCAACACAGCGUGGCAAAGUGGCUGUGGCUAGACUGCCCCUCUGAAUUCCUCGUCACUCAGCAGGGCAUCUCUGAGAGAAAUGCC [U12A U100C G106A],1.27
4,UACGUAGGUGGAUUUCCCCUGAUAGUGCUAAGGGGGCCUGGAAGUUUGGACUGGGCAGAGCUCAACACAGCGUGGCAAAGUGGCUGUGGCUAGACUGCCUCACUGGAUUCCUCGUCACUCAGCAGGGCAUCUCUGAGAGAAGUGCC [U12A U102A A142G],1.46
5,UACGUAGGUGGAUUUCCCCUGAUAGUGCUAAGGGGGCCUGGAAGUUUGGACUGGGCAGAGCUCAACACAGCGUGGCAAAGUGGCUGUGGCUAGACUGCCUCUCAGGAUUCCUCGUCACCUAGCAGGGCAUCUCUGAGGGAAAUGCC [U12A U104A U119C C120U A138G],1.5
6,UACGUAGGUGGCUUUCCCCUGGUAGUGCUAAGGGGGCCUGGAAGUUUGGACUGGGCAGAGCUCAACACAGCGUGGCAAAGUGGCUGUGGCUUGACUGCCUCUCUGGAUUCCUCGUCUCUCAGCAGGGCAUCUCUGAGAGAAAUGCC [U12C A22G A92U A117U],0.6
7,UACGUAGGUGGCUUUCCCCUGGUAGUGCUAAGGGGGCCUGGAAGUUUGGACUGGGCAGAGCUCAACACAGCGUGGCAAAGUGGCUGUGGCUAGACUGCCUCUCUGGAUUCCUCGUCACUCAGCAGGGCAUCUCUGAGUGAAAUGCC [U12C A22G A138U],0.84
8,UACGUAGGUGGCUUUCCCCUGGCAGUACUAAGGGGGCCUGGAAGUUUGGACUGGGCAGAGCUCAACACAGCGUGGCAAAGUGCCUGUGGCUAGACUGCCUCUCUGGAUUCCUCGUCACUCAGCUGGGCAUCUCUGAGAGAAAUGCC [U12C A22G U23C G27A G83C A124U],0
9,UACGUAGGUGGCUUUCCCCUGAUGGUGCUAAGGGGGCCUGGAAGUUUGGACUGGGCAGAGCUCAACACAGCGUGGCAAAGUGGCUGUGGCUAGACUGCCUCUCUGGCUUCCUCGUCACUCAGCAGGGCAUCUCUGAGAGAAAUGCC [U12C A24G A107C],0.84
10,UACGUAGGUGGCUUUCCCCUGAUGGUGCUAAGGGGGCCUGGAAGUUUGGACUGGGCAGAGCUCAACACAGCGUGGCAAAGUGGCUGUGGCUAGACUGCCUCUCCGGAUUCCUCGUCACUCAGCAGGGCAUCUCCGAGAGAAAUGCC [U12C A24G U104C U134C],2.87
11,UACGUAGGUGGCUUUCCCCUGAUUGUGCUAAGGGGGCCUGGAAGUUUGGACUGGGCAGAGCUCAACGCAGCGUGGCAAAGUGGCUGUGGCUAGACUGCCUCUCUGGAUUCCUCGCCACUCAGCAGGGCAUCUCUGAGUGAAAUGCC [U12C A24U A67G U115C A138U],1.31
12,UACGUAGGUGGCUUUCCCCUGAUUGUGCUAAGGGGGUCUGGAAGUUUGGACUGGGCAGAGCUCAACACAGCGUGGCAAAGUGGCUGUGGCUAGACUGCCUCUCUGGAUUCCUCGUCACUCAGCAGGGCAUCUCUGAGAGAAAUGCC [U12C A24U C37U],1.24
13,UACGUAGGUGGCUUUCCCCUGAUAGUGCUCAGGGGGCCUGGAAGUUUGGACUGGGCAGAGCUCAUCACAGCGUGGCAAAGUGGCUGUGGCUAGACUGCCUCACUGGAUUCCUCGUCACUCAGCAGGGCAUCUCUGAGAGAAAUGCC [U12C A30C A65U U102A],0.87
14,UACGUAGGUGGCUUUCCCCUGAUAGUGCUGAGGGGGCCUGGAAGUUUGGACUGGGCAGAGCUCAACACUGCGUGGCAAAGUGGCUGUGGCUAGACUGCCUCUCUGGAUUCCUCGUCACUCAGCAGGGCAUCUCUGAGAGAAAUGCC [U12C A30G A69U],0.43
15,UACGUAGGUGGCUUUCCCCUGAUAGUGCUGAGGGGGCCUGGAAGUUUGGACUGGGCAGAGCUCAACACAGCGUGGCAGAGUGGCUGUGGCUAGACUGCCUCUCUGGAUUCCUCGUCACUCAGCAGGGCAUCCCUGAGAGAAAUGCC [U12C A30G A78G U132C],1.25
16,UACGUAGGUGGCUUUCCCCUGAUAGUGCUGAGGGGGCCUGGAAGUUUGGACUGGGCAGAGCUCAACACAGCGUGGCAAAGUGGCUGUGGCCAGACUGCCUCUCAGGAUUCCUCGUCACUCAGCAGGGCAUCUCUGAGAGAAAUGCC [U12C A30G U91C U104A],0
17,UACGUAGGUGGCUUUCCCCUGAUAGUGCUUAGGGGGCCUGGAAGUUUGGACUGGGCAGAGCUCAACACAGCGUGGCAAAGUGGCUGUGGCUAGACUGCCUCUCUGGAUUCCUCGUCACUCAGCGGGGCAUCUCUGAGAGAAAUGCC [U12C A30U A124G],0.76
18,UACGUAGGUGGCUUUCCCCUGAUAGUGCUUAGGGAGCCUGGAAGUUUGGACUGGGCAGAGCUCAACACAGCGUGGCAAAGUGGCUGUGGCUAGACUGCCUCUCUGGAUUCCUCGUCACUCAGCAGGGCAUCUCUGAGAGAAAUGCC [U12C A30U G35A],0.85
19,UACGUAGGUGGCUUUCCCCUGAUAGUGCUUAGGGGGCCUGGAAGUUUGGACAGGGCAGAGCUCAACACAGCGUGGCAAAGUGGCUGUGGCUAGACAGCCUCUCUGGAUUCCUCGUCACUCAGCAGGGCAUCUCUGAGAGAAAUGCC [U12C A30U U52A U96A],0.18
